# Assay results: the supplement of paper PMC3334620
# The full ranking holds about 33,000 sequences; the median of “E-score (-0.5 to 0.5)” is about -0.043, and the highest 2% start at about 0.37. This is one part of the list.
# Biological target: T1, Upc2 (UniProt Q12151)
# T1 sequence: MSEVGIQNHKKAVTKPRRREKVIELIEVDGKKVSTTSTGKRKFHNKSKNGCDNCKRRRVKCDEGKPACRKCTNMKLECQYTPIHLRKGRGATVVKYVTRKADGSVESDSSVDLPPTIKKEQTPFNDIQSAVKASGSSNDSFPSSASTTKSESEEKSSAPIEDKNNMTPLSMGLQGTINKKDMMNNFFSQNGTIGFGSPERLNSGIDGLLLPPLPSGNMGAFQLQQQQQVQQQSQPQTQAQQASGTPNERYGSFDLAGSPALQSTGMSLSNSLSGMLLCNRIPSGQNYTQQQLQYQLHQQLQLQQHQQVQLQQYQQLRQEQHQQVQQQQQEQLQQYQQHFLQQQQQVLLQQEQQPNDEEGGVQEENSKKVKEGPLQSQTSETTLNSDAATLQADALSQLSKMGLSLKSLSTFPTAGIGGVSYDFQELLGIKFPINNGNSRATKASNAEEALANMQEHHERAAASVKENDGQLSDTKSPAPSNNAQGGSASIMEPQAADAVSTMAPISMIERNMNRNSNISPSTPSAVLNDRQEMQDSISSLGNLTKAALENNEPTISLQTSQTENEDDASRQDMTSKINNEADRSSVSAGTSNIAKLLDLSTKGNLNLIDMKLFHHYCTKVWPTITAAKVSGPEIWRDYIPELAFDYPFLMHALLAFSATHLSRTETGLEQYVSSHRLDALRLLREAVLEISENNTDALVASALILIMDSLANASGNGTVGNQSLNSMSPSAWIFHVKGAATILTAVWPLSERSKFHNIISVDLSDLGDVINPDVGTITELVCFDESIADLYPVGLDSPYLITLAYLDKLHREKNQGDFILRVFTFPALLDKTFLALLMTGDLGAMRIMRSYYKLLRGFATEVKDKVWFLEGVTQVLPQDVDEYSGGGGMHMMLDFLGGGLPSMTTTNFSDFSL
# Experiment: PBM E-score (8-mer binding enrichment) (E-score (-0.5 to 0.5)); higher = stronger / more preferred TF binding; most listed sequences are background and not binding sites
# Settings: protein concentration: 200 nM; construct: GST-full length
# Protocol: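 Universal 'all 10-mer' protein binding microarrays (Agilent AMADID 015681) probed with GST-tagged S. cerevisiae TFs (full-length or DBD) made by in vitro transcription/translation (PURExpress), about 100-200 nM. Bound TF was detected with fluorescent anti-GST. Each ungapped 8-mer (which stands for itself and its reverse complement) is scored by the PBM enrichment score (E-score), a modified Wilcoxon-Mann-Whitney statistic from -0.5 to +0.5, computed with the Universal PBM Analysis Suite. Scale: above 0.35 generally sequence-specific binding.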
row,Sequence,PBM E-score
1,ACTAATGA,0.015
2,TCCGCTCA,-0.188
3,ATTGAAAC,0.0608
4,GGGTTACA,0.051
5,ACGTATTA,0.201
6,CACTCGTA,0.455
7,ATCCTACC,-0.166
8,CTCGCAGA,-0.0867
9,AGCCGGTG,-0.104
10,GAGGGTAC,0.0828
11,AGGTGATC,0.0604
12,ACGTCCAT,-0.0817
13,AGCGCAGG,-0.228
14,CGATCACG,0.096
15,CGGCCACG,-0.192
16,CGCGAAGC,0.085
17,ACAGTCTC,-0.142
18,CGGACTAC,-0.113
19,CAGCAGGC,-0.131
20,ACTTAGAG,-0.268
21,GCACCTTA,-0.177
22,CAGGATTC,-0.198
23,ACCTGACA,-0.13
24,GGGTGTAC,0.212
25,ATTACTGG,-0.275

row,Sequence,PBM E-score
1,ACTATGTG,-0.176
2,GTAGTCGA,0.0599
3,AGTACATG,-0.132
4,ACTTCCGG,-0.163
5,CAGCGGTC,-0.215
6,AAGGGAGC,-0.164
7,ACCTGAAA,-0.0264
8,AAGCATGT,0.0121
9,GATAAAGC,-0.153
10,CCCAGTCA,-0.266
11,CCGGATCC,-0.0139
12,TAAAAACA,0.0575
13,GCACAGCC,-0.0947
14,ACCCGATG,0.0221
15,GCCGACAA,-0.0158
16,ATCTTTGA,0.0486
17,CTTCAGCA,-0.132
18,GTCTTGAA,0.072
19,AAGACTAG,-0.0706
20,AAGCCCGT,0.0277
21,AATGGGAG,-0.179
22,ACGTTGTG,0.0616
23,CGGCGACA,-0.134
24,GAGAAATC,0.116
25,ACGTCTCC,0.0582

row,Sequence,PBM E-score
1,GACTCCGA,-0.241
2,CCAAACGC,0.292
3,TGGGTAAA,0.0235
4,GGCATATA,0.246
5,ACCGCTGA,0.123
6,AATAAACA,0.0907
7,AGGTGGGA,-0.0594
8,GATCATGC,-0.128
9,CTAGGGTA,-0.249
10,ACCTCGAC,-0.0283
11,GTTCCAAA,0.117
12,AATAGCAG,-0.28
13,AATCGGTG,-0.0843
14,ATTCTATC,0.0248
15,AGGACACC,-0.124
16,AAGGCAAG,-0.215
17,AGGAAGTC,-0.232
18,AAGTCAGT,-0.0232
19,AGTAATGA,-0.109
20,CGCGCCTC,-0.00311
21,GCCCGACC,-0.27
22,AGTAGATA,0.167
23,CGAGGAGA,-0.0212
24,ACAGCGCG,-0.0289
25,ATCTGTGC,-0.186

row,Sequence,PBM E-score
1,AGCCCACC,-0.116
2,GGGAAAAA,-0.0196
3,ACATTGAT,0.1
4,AGTTGCCC,-0.2
5,CGTCACGC,-0.00845
6,AAAACAAA,0.117
7,GCATTTAC,-0.0255
8,AATAGTTG,-0.125
9,CCCGATCC,-0.258
10,CAGAGGTC,-0.179
11,GAGGGCGA,-0.218
12,CTGATTCC,-0.277
13,AAGCACGA,0.0392
14,CACGCCAC,-0.204
15,CGGATTCC,-0.0494
16,AGGTAACC,0.0804
17,ACACCAAA,0.133
18,GCTGGAAC,0.0479
19,GCACGTGC,0.00298
20,AAAATCGA,-0.118
21,GCGTCTGA,-0.0194
22,AAAATCCG,-0.0367
23,ATACTATA,0.064
24,AACGATAT,0.39
25,CGTAAAAG,0.405

row,Sequence,PBM E-score
1,CGATGCGC,0.128
2,CAACTCAA,-0.0496
3,CTGAGGCA,-0.14
4,CTTAAGAC,-0.122
5,CCGCGTAA,0.165
6,ATGCGCTA,-0.00733
7,TAGTCAAA,0.0497
8,CATTGAGC,-0.271
9,CGATCTTA,0.189
10,ACGGTCCT,-0.138
11,CGAAGAGC,0.045
12,TTACGGAA,0.258
13,GTTAGTCA,0.0718
14,CACGCAAG,-0.156
15,ACTGCACC,-0.109
16,CGGGGACA,-0.103
17,ATGATGGG,-0.237
18,AGTGCCGG,-0.18
19,AACCGTGT,0.0637
20,ACGAGACG,0.366
21,GTTTGCCA,0.0485
22,AAACCCAT,0.0435
23,CACTAAGC,0.00304
24,AGCTTGAT,-0.129
25,ATAGCAAG,-0.168

row,Sequence,PBM E-score
1,GCGTCAAC,-0.106
2,AATGGACT,-0.108
3,CTGACTGA,-0.127
4,CGATCTCC,-0.0987
5,TTTAGAAA,0.133
6,CGGTTTAC,0.26
7,AGTCCTGA,-0.291
8,GCTCTATA,-0.0323
9,AGAACAAA,0.103
10,CGCGCGAG,0.00271
11,CAGCTAGC,-0.247
12,AAAGTGGG,0.0771
13,AATTATAT,0.175
14,CGCATGTC,0.0261
15,GATACATA,0.0496
16,CACGAGAG,0.0635
17,AATGGGAT,-0.124
18,GACCTGAA,-0.0798
19,CTAATCTC,0.0838
20,TCAGCTAA,0.0522
21,ACACCAGA,-0.00331
22,AAACGTTA,0.225
23,CCAAGGGC,-0.208
24,CGGAACCG,0.119
25,CGTAACCA,0.223

row,Sequence,PBM E-score
1,CCTTCCCC,-0.131
2,CAGCGCCA,-0.136
3,CAATTATC,0.107
4,GTAGCGAA,0.223
5,ATTCGCCG,0.131
6,CGCGTAAG,0.205
7,CGACACCA,0.2
8,CCGCTCCC,-0.0101
9,AGACTCAC,-0.252
10,ATAAGTAT,0.182
11,CTTCGTTA,0.345
12,CAGGTTAG,-0.191
13,ATATCTAG,-0.0547
14,AGGGTTTA,-0.113
15,TCTTTAAA,0.0359
16,ATTGAGGG,-0.334
17,CTCCCACC,-0.0368
18,CGTCAGGC,-0.112
19,GAGGCCGA,0.0482
20,GCGTACGA,0.448
21,TAATAGGA,-0.0422
22,CGTCTAGA,0.121
23,ACTTTATG,-0.0577
24,GATGCCAA,-0.095
25,CGTGCTCA,-0.0493

row,Sequence,PBM E-score
1,CCACGACG,-0.174
2,CGGCCGCC,-0.0226
3,AATTGTGC,0.131
4,CCTATCGA,-0.208
5,CCATTGTC,-0.158
6,AAGTGCGG,-0.161
7,ATTGGGGG,-0.274
8,AGCCGTAG,-0.0316
9,ACATGTTC,0.0169
10,GCCAGTAA,-0.00828
11,ACAATAGA,-0.101
12,CGCACTCA,0.118
13,CGATAGAG,0.131
14,ATTCCAAA,0.00842
15,TGACCACA,-0.285
16,GGCCGGCA,-0.229
17,AAACATAG,-0.00681
18,ACTTCTAG,-0.23
19,ACATATGG,-0.0626
20,GGCGCAGA,-0.0785
21,CTACAACC,0.0888
22,ACGGTAGC,0.0604
23,CTCGCTTC,0.134
24,CACAATAG,-0.0551
25,TAGCATAA,-0.0651

row,Sequence,PBM E-score
1,GGCCGGAA,-0.216
2,AACGTCGA,0.202
3,CAAACGTG,0.225
4,CAGCTCTC,-0.0943
5,CAGCAGTA,-0.117
6,GCATTACC,-0.15
7,TAGGACTA,-0.168
8,AAATCTTG,-0.204
9,AAGACGGG,-0.115
10,GACCGTAA,0.294
11,AGACGGAC,-0.284
12,ACTGGAAG,-0.184
13,GCCTAAGC,-0.129
14,GAACGCCC,0.0622
15,ACGAGCGC,0.347
16,AATTTGGC,0.0131
17,AATTACGT,0.141
18,ATGTGATA,0.0151
19,ATCCCCCA,-0.145
